# Measured values reported in the RNAGym collection of RNA variant scans (doi:10.1073/pnas.2313332121).
# Variants at the floor of the assay are shown more often than the library holds them.
# B1: TPR 5TU (parent)
# chain: GGAUCUUCUCGAUCUAACAAAAAAGACAAAUCUGCCACAAAGCUUGAGAGCAUCUUCGGAUGCAGAGGCGGCAGCCUUCGGUGGCGCGAUAGCGCCAACGUUCUCAACUAUGACACGCAAAACGCGUGCUCCGUUGAAUGGAGUUUAUCAUG
# Variants of: B1
# Experiment: polymerase ribozyme fitness, log enrichment relative to wild type (log ratio); higher = more active; in vitro selection for triplet polymerase activity
# Summary of the method: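 In triplicate, a single round of in vitro selection was run on each mutant library, PCR-built and transcribed, covering one subunit of a heterodimeric triplet polymerase ribozyme. Frozen incubation at −7 °C followed annealing with a biotinylated primer, partner subunit and triplets, and extended constructs were then gel-excised, streptavidin-captured and taken through RT-PCR. Fitness is the logarithm of genotype enrichment over wild-type enrichment, from inverse-variance-weighted replicate averages of Illumina-sequenced inputs and outputs. […] only genotypes with ≥10 input reads and ≥1 read per output were kept.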
row,Variant,polymerase ribozyme fitness (log ratio)
1,GGAUCUUCUCGAUCUAACAAAAAAGACAUAUCUGCCACAAAGCAUGAGAGCAUCGUCGGAUGCAGUGGCGGCAGCCUUCGGUCGCGCGAUAGCGCCAACGUUCUCCACUAUGACACGCAAAACGCGUGCUCCGUUGAAUGGAGUUGAUCAUG,≤ -4.2
2,GGAUCUUCUCGAUCUAACAAAAAAGACAUAUCUGCCACAAAGCUUGAGAGCAUCUUCGGAUGCAGAGGCGGCAGCCUUCGGUGGCGCGAUAUCGCCAACGUUCUCAACUAUGACACGCAAAACGCGUGCUCCGUUGAAUGGAGUUUAUCAUG,≤ -4.2
3,GGAUCUUCUCGAUCUAACAAAAAAGACAUAUCUGCCACAAAGCUUGAGAGCAUCUUCGGAUGCAAAGGCGGCAGCCUUCGGUGGCGAGAUCGCGCCAACGUUCUCAACGAUGACACGCAAAACGCGUGCUCCGUUGAAUGGAGUUAAUCGUG,≤ -4.2
4,GGAUCUUCUCGAUCUAACAAAAAAGACAUAUCUGCCACAAAGCUUGAGAGCAUCUUCGUAUGCAGAGGCGGCAGCCUUCGGUGGCGCGAUAGUGCCAACGUUCUCAACUAUGACACGCAAAACGCGUGCUCCGUUGAAUGGAGUUUAUCAUG,≤ -4.2
5,GGAUCUUCUCGAUCUAACAAAAAAGACAUAACUGCCACAAAGCUUGAGAGCAUCUGCGGAUGCAGGGGCGGCAGCCUUCGGUGGCGCGAUAGCGCUAACGUUCUAAACUAUGACACGCAAAACGCGUGCUCCGUUGAUUGGAGUUUAUCAUG,≤ -4.2
6,GGAUCUUCUCGAUCUAACAAAAAAGACAUAUCUGCCACAAAGCUUGAGAGCAUCUUCGCAUGCAGAGGCGGCAGCCUUCGGUGGCGCGAUAGCGCCAACGUUCUCAACUAUGACACGCAAAACGCGUGCUCCGUUGAAUGGAGUUUAUCAUG,≤ -4.2
7,GGAUCUUCUCGAUCUAACAAAAAAGACAUAUCUGCCACAAAGCUUGAGAGCAUCUUCUGAAGCAGAGGCGGCAGCCUUCGGAGGCACGAUAGCGCCAACGUUCUCAACUAUGACACGCGAAACGCGUGCUCCGUUGAAUGGAGUUUAUCAUG,≤ -4.2
8,GGAUCUUCUCGAUCUAACAAAAAAGACAUAUCUGCCACAAAGCUUGAGAGCAUCUUCGAAUGCAGAGGCGGCAGCCUUCGGUGGCGCGAUAGCGCCAACGUUCUCAACUAUGACACGCAAAACGCGUGCUCCGUUGAAUAGAGUUUAUCAUG,≤ -4.2
9,GGAUCUUCUCGAUCUAACAAAAAAGACAUAUCUGCCACAAAGCUUGAGAGCAUCUUCGGAUGCAGAGGCGGCAGCCUUCGGUGGCGCGAUAGCGCCAACCUUCUCAACUAUGACACGCAAAACGCGUGCUCCGUUGAAUGGAGUUUAUCAGG,≤ -4.2
10,GGAUCUUCUCGAUCUAACAAAAAAGACAUAUCUGCCACAAAGCGUGAGACCAUCUUCGGAUGCAGAGGCGGCAGCCUUACGUGGCGCGAUAGCGCCAACGUUCUCAACUAUGACACGCAAAACGCGUGCUCCGUUGAAUGGAGUUUAUCAUG,≤ -4.2
11,GGAUCUUCUCGAUCUAACAAAAAAGACAUAUCUGCCACAAAGCUUGAGAGCAUCUUCGGAUGCAGAGGCGGCAGCCUUCGGUGUCGCGAUAGCGCCAACGUUCUCAACUAUGACACGCAAAACGCGUGCUCCGUAGAAUGGAGUUUAUCAUG,≤ -4.2
12,GGAUCUUCUCGAUCUAACAAAAAAGACAUAUCUGCCACAAAGCUUGAGAGCAACUUCGGAUGCAGAGGCGGCAGCCUUCGGUGGCGCGAUAGCGCCAACGUUCUCAACUAUGACACGCAAAACGCGUGCUCCGUUGAAUGGAGUUUAUCAUG,-4.15
13,GGAUCUUCUCGAUCUAACAAAAAAGACAUAUCUGCCACAAAGCUUGAGAGCAUCUUCGGAUGCAGAGGCGGCAGCCUUCGGUGGCGCCAUAGCGCCAACGUUCUCUACUAUGACACGCAAAACGCGUGCUCCGUUGAAUGGAGUUUAUCAUG,≤ -4.2
14,GGAUCUUCUCGAUCUAACAAAAAAGACAUAUCUGCCACAAAGCUUGAGAGCAUCUUCGGAUGCAGAGGCGGCAGCCUUCGGUGUCGCGAUAGCCCCAACGUUCUCAACUAUGACACGCAAAACGCGUGCUCCGUGGAAUGGAGUUUAUCAUG,≤ -4.2
15,GGAUCUUCUCGAUCUAACAAAAAAGACAUAUCUGCCACAAAGCUUGAGAGCAUCUUCGGAUGCAGAGGCGGCAGCCUUCAGUGGGGCGAUAGCGCCAACGUUCUCAACUAUGACACGCAAUACGCGUGCUCCGUUGAAUCGAGUUUAUCAUG,≤ -4.2
16,GGAUCUUCUCGAUCUAACAAAAAAGACAUAUCGGCCACAAAGCUUGAGAGCACCUUCGGAUGCAGAGGCGGCAGCCUUCGGUGGGGCGAUAGCGCCAAUGUUCUCAACUAUGACACGCAAAACGCGUGCUCCGUUGAAUGGAGUUUAUCAUG,≤ -4.2
17,GGAUCUUCUCGAUCUAACAAAAAAGACAUAGCUGCCACAAAGCUUGAGAGCAUCAUCGGAUGCCGAGGCGGCAGCCUUCGGUGACGCGAUAGCGCCAACGUUCUCAACUAUGACACGCAAAACGUGUGCUCCGUUGAAUGGAGUUUAUCAUG,≤ -4.2
18,GGAUCUUCUCGAUCUAACAAAAAAGACAUAUCUGCCACAAAGCUUGAGAGCAUCUUCGGAUGCAGAGGCGGCAGCCUUCGGUGUCGCGAUAGCGCCAACGUUCUCAACUAUGACACGCAAAACGCGUGCUCCGUUGAAUGGAGUUUAUCAUG,≤ -4.2
19,GGAUCUUCUCGAUCUAACAAAAAAGACAUAUCUGCCACAAAGCUUGAGAGCAUCUUCGGAUGCAGAGGCGGCAGCCUUCGGUGACGCGAUAGCGCCAACGUUCUCAACUAUGACACGCAAAACGCGUGCUCCGUUGAAUGGAGUUUAUCAUG,≤ -4.2
